Consider 44 molecules from PubChem BioAssay AID651582 (Sanford-Burnham Center for Chemical Genomics, 2012).

The other results are listed elsewhere or left out. Further columns of the screen follow, without active or inactive calls. Compounds called inactive in the main read-out are mostly missing here.

A short description of this test: inhibitors of triacylglycerol accumulation, primary screen, cell-based, uHTS, fluorescence, H9c2 (AID 651582). To be noted: H9c2 cells, Nile Red lipid (TAG) fluorescence; measured here:; at 12.5 µM; cells loaded with 200 µM oleic acid.
Regarding `Cc1ccc(C(=O)NCCN2C3=NC[C@H](C(C)C)N3C[C@H]2Cc2ccc(O)cc2)cc1Br`, the DAPI nuclei signal change (viability), lower = more cytotoxic is -30.8%.

As for `CC(C)(C)NC(=O)C(c1ccc(-c2ccccc2)cc1)N(C[C@H]1CC[C@@H]([C@@H]2CC[C@H](CO)O2)O1)C(=O)c1ccc(-c2ccccc2)cc1` (some centres undefined), the DAPI nuclei signal change (viability), lower = more cytotoxic is 7.44%.

`COc1ccc(CNC(=O)c2ccc(N3CCC4(CC3)CC(c3ccc(Cl)cc3)=NO4)c(NC(=O)Cc3ccc(F)cc3)c2)cc1`: the DAPI nuclei signal change (viability), lower = more cytotoxic was -1.82%.

Turning to `Cc1cc(C)c2sc(N(CCCN(C)C)C(=O)c3ccc(S(=O)(=O)N4CCCc5ccccc54)cc3)nc2c1`, the DAPI nuclei signal change (viability), lower = more cytotoxic is -40%.

Regarding `O=C(Nc1ccc(F)cc1)c1cc(Cl)sc1Cl`, the DAPI nuclei signal change (viability), lower = more cytotoxic was -47.8%.

`O=C(CSc1nc2ccc(Nc3nc(N4CCOCC4)nc(N4CCOCC4)n3)cc2s1)Nc1ccccc1Cl`: the DAPI nuclei signal change (viability), lower = more cytotoxic was -2.88%.

Regarding `O=C(c1ccoc1)N1CCN(c2cc(-c3cccnc3)nc3cc(-c4cccc(Cl)c4)nn23)CC1`, the DAPI nuclei signal change (viability), lower = more cytotoxic came to 81.7%.

In the case of `CCOc1ccc(CCNC(=O)CN2CCN(Cc3ccccc3C)C2=O)cc1OCC`, the DAPI nuclei signal change (viability), lower = more cytotoxic was -13%.

Turning to `CCOCCOC(=O)c1[nH]c2c(c1C)C(=O)CC(c1cccs1)C2` (centres undefined), the DAPI nuclei signal change (viability), lower = more cytotoxic is -46.8%.

For `Oc1c(C(c2ccccc2Cl)N2CCCC2)ccc2cccnc12` (centres undefined), the DAPI nuclei signal change (viability), lower = more cytotoxic is -24.5%.

For the molecule `COc1cccc(/C=C/C(=C2/C(=O)N(c3ccccc3)N=C2C)c2ccc(C)cc2)c1OC`, the DAPI nuclei signal change (viability), lower = more cytotoxic is -2.21%.

For the molecule `CCCN(CCC)CCNC(=O)c1cc2c(=O)n(CC)c3ccccc3c2s1`, the DAPI nuclei signal change (viability), lower = more cytotoxic was 70.1%.

For the molecule `C#CCN(C[C@@H]1[C@@H](OC(=O)NCc2ccccc2F)[C@@H](OC(=O)NCc2ccccc2F)Cn2c(=O)ccc(=O)n21)S(=O)(=O)c1ccc(C)cc1`, the DAPI nuclei signal change (viability), lower = more cytotoxic was -45.7%.

Take `Brc1ccc(-c2csc(NNC3=NCCCCC3)n2)cc1`: the DAPI nuclei signal change (viability), lower = more cytotoxic was -16.5%.

Turning to `CCCOc1ccc(F)cc1-c1cc(C(=O)NCc2cc(OC)cc(OC)c2)[nH]n1`, the DAPI nuclei signal change (viability), lower = more cytotoxic is -3.7%.

For the molecule `O=C(N/N=C/c1cc(Cl)cc(Cl)c1O)c1ccncc1`, the DAPI nuclei signal change (viability), lower = more cytotoxic is -29.8%.

In the case of `COc1cccc(/C=N/NC(=O)CSc2cccc3cccnc23)c1`, the DAPI nuclei signal change (viability), lower = more cytotoxic was -22.5%.

For `Cc1cc(-n2c(C)cc(C(=O)CSc3nc4ccccc4c(=O)n3Cc3ccco3)c2C)no1`, the DAPI nuclei signal change (viability), lower = more cytotoxic is -1.73%.

Regarding `CC(C)c1cccc(C(C)C)c1OC(=O)[C@H]1OC(c2ccc(Br)cc2)=C[C@@H]1c1ccc(Br)cc1`, the DAPI nuclei signal change (viability), lower = more cytotoxic is -19.8%.

Consider `C[C@H](O)[C@@H]1CN2CCc3c([nH]c4ccc(-c5ccc6c(c5)OCO6)cc34)[C@@H]2C[C@@H]1N(C)C(=O)Nc1cc(Cl)cc(Cl)c1`, for which the DAPI nuclei signal change (viability), lower = more cytotoxic is -43%.

`Cc1cc(C)cc(-n2c3ccc(NC(=O)Cc4cccc5ccccc45)cc3c(=O)n2C)c1`: the DAPI nuclei signal change (viability), lower = more cytotoxic was -41%.

With `O=C(CCC1CCCC1)Nc1ccc(OCC(=O)N2CCOCC2)cc1`, the DAPI nuclei signal change (viability), lower = more cytotoxic turned out to be 4.64%.

With `Oc1ccc(C[C@H]2CNC(=S)N2CC2CCCN2C[C@H](Cc2ccc(O)cc2)N2C[C@H](Cc3ccc(O)cc3)N(CC3CCCCC3)C2=S)cc1` (some centres undefined), the DAPI nuclei signal change (viability), lower = more cytotoxic amounted to 4.26%.

As for `CCN(CC(=O)Nc1ccc(C(=O)Nc2ccc(OC)cc2)cc1)Cc1nc2ccccc2c(=O)[nH]1`, the DAPI nuclei signal change (viability), lower = more cytotoxic was -26.1%.

Consider `O=C(O)c1ccc(N/N=C/c2ccc(-c3cccc(Cl)c3)o2)cc1`, for which the DAPI nuclei signal change (viability), lower = more cytotoxic was 21.7%.

As for `C(=N\Nc1nc2ccccc2[nH]1)/c1cccc2cccnc12`, the DAPI nuclei signal change (viability), lower = more cytotoxic was -34%.

`CCOc1ccc(CC2c3cc(OCC)c(OCC)cc3CCN2C(=O)c2cc(OC)c(OC)c(OC)c2)cc1OCC` (centres undefined): the DAPI nuclei signal change (viability), lower = more cytotoxic came to 9.71%.

In the case of `O=C(c1ccc(F)cc1)C1CCN(C(=O)NC2CCCCC2)CC1`, the DAPI nuclei signal change (viability), lower = more cytotoxic was -9.27%.

As to `Cc1cc(C)c2nc(N3CCC(C(=O)NCCCN4CCCCC4)CC3)sc2c1`, the DAPI nuclei signal change (viability), lower = more cytotoxic was 3.61%.

Consider `CN(C)CCCNC(=O)C[C@H]1C[C@H](C(=O)N2CCOCC2)[C@@]2(CCC3CCCC3)c3[nH]c4cc(-c5ccco5)ccc4c3CCN2C1=O`, for which the DAPI nuclei signal change (viability), lower = more cytotoxic was -8.46%.

Regarding `COC(=O)[C@]1(C)N[C@H](c2ccc(-c3ccc(Cl)c(Cl)c3)c(OC)c2)[C@@H]2C(=O)N(C)C(=O)[C@@H]21`, the DAPI nuclei signal change (viability), lower = more cytotoxic is -8.11%.

For `CCN(CC)CCC(=O)Nc1cccc2c1C(=O)c1ccccc1C2=O`, the DAPI nuclei signal change (viability), lower = more cytotoxic is -48.6%.

For `CSc1nc(N(C)NC(=O)c2ccc(Cl)cc2)c2ccccc2n1`, the DAPI nuclei signal change (viability), lower = more cytotoxic is -33.2%.

Take `Cc1ccccc1NS(=O)(=O)c1ccc(N2CCCC2=O)cc1`: the DAPI nuclei signal change (viability), lower = more cytotoxic was -32.8%.

As for `CC(C)(C)OC(=O)N(CCc1ccccc1)Cc1ccccc1OCc1cccc(NC(=O)/C=C/c2ccccc2)c1`, the DAPI nuclei signal change (viability), lower = more cytotoxic was -15.3%.

On to `COC(=O)C=C1CCC2C3CCC4=CC(=O)C(Br)CC4(C)C3C(=O)CC12C` (centres undefined), for which the DAPI nuclei signal change (viability), lower = more cytotoxic was -9.44%.

As to `CCN(CC)CCNc1ncnc2c1sc1nc(N3CCCC3)c3c(c12)CC(C)(C)OC3`, the DAPI nuclei signal change (viability), lower = more cytotoxic is -23.9%.

Turning to `COc1cc(-c2nc(-c3ccc(NC(=O)c4ccc5c(c4)OCO5)cc3)no2)cc(OC)c1OC`, the DAPI nuclei signal change (viability), lower = more cytotoxic was -19.4%.

For `CCOc1ccc(CN(C)C(=O)CCl)cc1`, the DAPI nuclei signal change (viability), lower = more cytotoxic was -20.2%.

Turning to `CCCCCCCCCCCCCCCC[n+]1ccccc1`, the DAPI nuclei signal change (viability), lower = more cytotoxic was -38.6%.

As for `Cc1cc(C)c2c(N)c3ccccc3nc2n1`, the DAPI nuclei signal change (viability), lower = more cytotoxic came out at 97.8%.

As for `CSc1cc(-c2ccc(Cl)cc2)n(Cc2ccccc2)c(=O)c1C#N`, the DAPI nuclei signal change (viability), lower = more cytotoxic was -31.1%.

With `CCOC(=O)c1[nH]c2ccc(OCC)cc2c1NC(=O)CN1CCN(c2ccccc2)CC1`, the DAPI nuclei signal change (viability), lower = more cytotoxic turned out to be 24.9%.

For the molecule `CCN1C(=O)[C@H]2[C@@H](c3ccc(-c4cccc(Cl)c4)c(OC)c3)N[C@@](CC(C)C)(C(=O)OC)[C@H]2C1=O`, the DAPI nuclei signal change (viability), lower = more cytotoxic amounted to 110%.
